Measurements from PubChem BioAssay AID463173 (ICCB-Longwood Screening Facility, Harvard Medical School, 2010).
The campaign covered roughly 52,000 compounds. About 1,700 (3.3%) were called active. Cut-off read from the data, not from the text of the source: active = survival mostly below about 52% (no sharp cut-off); inactive = mostly above about 56%. This is one part of the list.

What follows are molecules tested on Wild type (assay: growth inhibition of S. aureus wild type versus tarO mutant, primary screen, teichoic acid synthesis inhibitors, RN4220, OD600 (AID 463173)). Conditions: S. aureus RN4220 wild type/DeltatarO growth, OD600, 18 h, active compounds read low, screened at 18.75 µg/mL (by protocol).
For `Cc1ccc(S(=O)(=O)NCCc2cn3ccsc3n2)cc1`, the survival was inactive: 57%. In the case of `COc1ccc(NC(=O)CCc2nnc3n(CC(C)C)c(=O)c4ccccc4n23)cc1`, the survival is reported as inactive: 91%. For `COc1ccccc1CCNS(=O)(=O)c1ccc(N2CCCCS2(=O)=O)cc1`, the survival was inactive: 88%. With `CSc1nc(NNC(=O)c2ccco2)c2c3c(sc2n1)COC(C)(C)C3` the survival was inactive: 102%. With `CCc1ccccc1NC(=O)C1CCCN(c2ncnc3onc(C)c23)C1` (centres undefined) the survival was inactive: 70%. For `COc1ccc(CNC(=O)c2ccc(CS(=O)Cc3ccccc3Cl)o2)cc1` (centres undefined), the survival was inactive: 95%. In the case of `Cc1ccc(C2c3[nH]c4ccccc4c3CCN2C(=O)CCC2CCCC2)cc1` (centres undefined), the survival is reported as inactive: 69%. For `Cc1nc2ccn(Cc3ccco3)c(=O)c2cc1C(=O)N1CCN(c2ccccc2)CC1`, the survival was inactive: 66%. In the case of `Cc1ccc(NC(=O)Cn2ccn(-c3ccc(F)c(F)c3)c(=O)c2=O)cc1C`, the survival is reported as inactive: 78%. For `Cc1ccc(-n2nc(C(=O)N3CCN(c4cc(Cl)ccc4C)CC3)c3c4ccccc4n(C)c3c2=O)cc1`, the survival was inactive: 78%. `Cc1cccc2cc(CNCC3CCCO3)c(Cl)nc12` (centres undefined) was tested, and the survival was inactive: 129%. In the case of `Cc1ccc(Cl)cc1-n1ncc2c(Nc3cccc(C)c3C)ncnc21`, the survival is reported as inactive: 72%. For `O=C(c1ccc(CSc2nc3ccncc3n2Cc2ccccc2)cc1)N1CCCCCC1`, the survival was inactive: 77%. With `CC(C)c1ccc(OCC(=O)N(Cc2ccc(N(C)C)cc2)C2CCS(=O)(=O)C2)cc1` (centres undefined) the survival was inactive: 71%. `C=Cc1ccc(CSc2nc(-c3ccc(C)cc3)nc3c2Cc2c(CO)cnc(C)c2O3)cc1` was tested, and the survival was inactive: 84%. In the case of `Cc1cccc(NC(=O)C(NS(=O)(=O)c2ccc3c(c2)oc(=O)n3C)C(C)C)c1` (centres undefined), the survival is reported as inactive: 83%. With `O=c1c(S(=O)(=O)c2cccc(Cl)c2)cn(Cc2ccccc2)c2cc(N3CCOCC3)c(F)cc12` the survival was inactive: 51%. In the case of `O=C(Nc1cccc(C(=O)OCc2cc(=O)n3c4c(sc3n2)CCCC4)c1)c1ccccc1`, the survival is reported as inactive: 75%. `Cc1ccc2nc(-c3cccnc3)c(Nc3ccccc3C)n2c1` was tested, and the survival was inactive: 99%. In the case of `CCc1ccc(NC(=O)Cn2c(=O)n(Cc3ccco3)c(=O)c3cccnc32)cc1`, the survival is reported as inactive: 122%. With `CCCNC(=O)CCSc1nc(-c2ccc3c(c2)OCO3)cc(C(F)(F)F)n1` the survival was inactive: 84%. `Cc1cc(C)c2nc(N(Cc3cccnc3)C(=O)CCOc3ccccc3)sc2c1` was tested, and the survival was inactive: 56%. `Cc1cnc(C(=O)Nc2ccc(S(=O)(=O)NC(C)C)cc2)cn1` was tested, and the survival was inactive: 110%. `CCOc1ccc(S(=O)(=O)Nc2nc3ccccc3nc2Nc2ccc(OC)cc2)cc1` was tested, and the survival was inactive: 72%.
